In all, about 200,000 compounds went through this assay and about 10 (0.005%) were called active. The inconclusive results got no clear call from the source; some entries with a clear call stand among them for comparison. The call rests on the fitted dose curve; in most records, active means well fitted inhibition curve with a large enough effect; inconclusive means small, poorly fitted or top-dose-only effect, or effect the other way, or another doubt; inactive means no such curve, though single readings can be large or run the other way. Potencies of inconclusive entries are left out as doubtful fits.
Target: Lysosomal alpha-glucosidase (Homo sapiens) (UniProt P10253)
Assay: qHTS Assay for Inhibitors of Human alpha-Glucosidase as a Potential Chaperone Treatment of Pompe Disease;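 on activity change, negative = inhibition: plate controls were uninhibited enzyme wells for no effect and no-enzyme background for full effect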
Conditions: purified human GAA, 4-MU-alpha-glucoside fluorescence; activity change, negative = inhibition: at 76.9 µM (top of the series) unless noted
How it was run: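 Compounds are titrated up to 77 uM against 4 nM human enzyme. Substrate 4-methylumbelliferyl-alpha-D-pyranoside (400 uM) reacts 20 min at room temperature in pH 5.0 buffer; liberated 4-methylumbelliferone is read at 440 nm.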
Potency means the concentration at half of the fitted maximal effect; tags describe the fitted curve by direction and shape.

SMILES | activity change, negative = inhibition | Potency
CN(C(=O)CSC1=NC2C(N=N1)c1cc(Br)ccc1N2C)C1CCCCC1 (stereo not given) | inconclusive: 18.2% [activator] | 
Cc1cc(C=O)c(C)n1-c1cc(C(=O)O)cc(C(=O)O)c1 | inconclusive: 15.9% [activator] | 
CCCC(=O)n1nc(-c2cccnc2)nc1NCc1cccs1 |  | inconclusive [inhibitor, single point]
COCCn1c(=O)[nH]c2cc(C(=O)NCc3ccccc3)ccc2c1=O |  | inconclusive [activator, partial curve]
COc1ccc(N2CCN(C(=O)CN3CCN(C(c4ccccc4)c4ccccc4)CC3)CC2)cc1 |  | inconclusive [inhibitor, partial curve]
CCOc1cc(CNc2ccc(N3CCCCC3)cc2)cc(Br)c1OCC(=O)NC(C)(C)C |  | inactive
COC(=O)c1cccnc1-n1c(=O)c2cccnc2n(CC(=O)Nc2ccc(Br)cc2)c1=O |  | inconclusive [inhibitor, full curve, poor fit]
CC(C)CCNC(=O)CC1C(=O)N(Cc2ccccc2)C(C)c2nc3ccccc3n21 (stereo not given) |  | inconclusive [inhibitor, single point]
Cc1cc(C(=O)OCC(=O)N2c3ccccc3NC(=O)C2(C)C)c(C)n1-c1ccccc1 |  | inconclusive [inhibitor, single point]
COc1ccc(Cl)cc1NC(=O)COC(=O)CCCN1C(=O)c2ccccc2C1=O |  | inconclusive [inhibitor, single point]
Cc1cc(C)n(-c2ccc(C(=O)Nc3ccc(S(=O)(=O)NCc4ccco4)cc3)cc2)n1 |  | inconclusive [inhibitor, single point]
COc1ccc(Nc2n[nH]c(C)c2[N+](=O)[O-])cc1 |  | inconclusive [inhibitor, single point]
S=C(Nc1cccc(Cl)c1)Nc1cccc2cnccc12 |  | inactive
CC(NC(=O)c1ccco1)C(c1cccs1)N1CCN(c2ccc(F)cc2)CC1 (stereo not given) |  | inconclusive [inhibitor, single point]
Cc1ccnc(N2CCC(C(=O)NCc3ccc(F)cc3)CC2)n1 | inconclusive: 16% [activator] | 
CC(C)(C)NC(=O)C(c1c[nH]c2ccccc12)N(C(=O)Cn1nnc(-c2ccc(F)cc2)n1)c1cccc(O)c1 (stereo not given) |  | inconclusive [inhibitor, partial curve]
CC(C)(CO)NC(=O)C(c1ccccc1)c1ccccc1 |  | inconclusive [inhibitor, single point]
CCOc1cc(C)c(Cl)cc1S(=O)(=O)n1cnc2ccccc21 |  | inconclusive [inhibitor, partial curve]
CCOC(=O)Cn1c(=O)cc(C)c2cccc(C)c21 | inconclusive: 15.6% [activator] | 
O=C(c1ccccn1)N1CCN(S(=O)(=O)c2ccc3ccccc3c2)CC1 |  | inconclusive [inhibitor, partial curve]

SMILES | activity change, negative = inhibition | Potency
CC12CC(NC(=O)N1c1cccc(C(=O)NCc3ccccc3)c1)c1ccccc1O2 (stereo not given) | inconclusive: -18.1% [inhibitor] | 
O=C(C(Cc1ccccc1)n1cccc1)N1CCCCCC1 (stereo not given) |  | inconclusive [inhibitor, partial curve]
CCc1cc(-c2n[nH]c(C)c2-c2nc3ccccc3n2C)c(O)cc1O | inconclusive: 15.9% [activator] | 
CCOc1ccccc1N(CC(=O)N1CCOCC1)S(=O)(=O)c1ccccc1 |  | inconclusive [inhibitor, full curve, poor fit]
COc1ccc(-c2nc3ccc([N+](=O)[O-])cc3[nH]2)cc1 |  | inconclusive [inhibitor, partial curve, poor fit]
O=c1c2ccccc2nnn1CSc1nnc2sc3ccccc3n12 |  | inconclusive [inhibitor, single point]
Clc1ccc(-c2nnc3sc(-c4ccc(Br)o4)nn23)cc1 |  | inconclusive [inhibitor, single point]
CCCOc1cc(N(CC)CC)ccc1/C=C(/C#N)c1nc2ccc(C)cc2[nH]1 |  | inconclusive [activator, partial curve]
Cc1ccc(C(=O)O/N=C2\CCSc3ccc(C)cc32)cc1 |  | inconclusive [inhibitor, single point]
O=C1NC2(C=Cc3c(ccc4ccccc34)O2)Oc2ccccc21 (stereo not given) |  | inconclusive [activator, partial curve]
O=C(CSc1nnc(Cc2ccccc2)n1Cc1ccco1)NC1CCCC1 |  | inconclusive [inhibitor, single point]
CC(C)CCNc1nc2c(cc1C#N)COC(C)(C)C2 |  | inconclusive [activator, single point]
C=CCOc1c2ccc(C(=O)NCCc3ccc(C)cc3)cc2nn1C |  | inconclusive [activator, partial curve]
COc1cc2cc(CN(Cc3cccnc3)C(=O)Nc3ccccc3)c(=O)[nH]c2cc1OC | inconclusive: 25.7% [activator] | 
COc1cccc(-c2cc3nc(-c4ccccc4)cc(N4CCC5(CC4)OCCO5)n3n2)c1 |  | inconclusive [activator, partial curve]
O=c1[nH]c(CN2CCN(c3ccccc3O)CC2)nc2ccccc12 |  | inconclusive [inhibitor, single point]
O=c1c(Br)c(Br)cnn1-c1ccccc1 | inconclusive: 15.6% [activator] | 
CN1CCN(c2ccccc2NC(=O)c2ccc(N3CCCC3)c([N+](=O)[O-])c2)CC1 |  | inconclusive [inhibitor, full curve, poor fit]
CCN1CCN(C(c2ccc(OC)cc2)c2nnnn2Cc2ccc3c(c2)OCO3)CC1 (stereo not given) | inconclusive: 17.5% [activator] | 
CCCC12CN3CC(C)(CN(C1)C3c1ccc(OC)cc1)C2=O (stereo not given) |  | inconclusive [inhibitor, single point]
